The list shows a part of the results. At the low end of the ranking, values are background and their order means little.

The target in this assay is SIX1 homeodomain (reference allele) (UniProt Q15475). As to the kind of experiment: universal protein binding microarray. As to conditions: Universal all-10-mer PBM (8x60K, AMADID 030236), 300 nM GST-tagged protein, Alexa Fluor 488 anti-GST; buffer, salt, pH and temperature not stated; high values mean tight binding; most listed sequences are background and not binding sites; double strand, one strand shown.
For the sequence CTGGGTGA, the binding signal worked out at 0.0389 E-score.
The result for CGGACCAC reads 0.121 E-score; that for CGTACTAG, -0.118 E-score.
For ATCCTCGG, the binding signal came to 0.23 E-score.
As to ATACATGA, the binding signal stood at 0.231 E-score.
For the sequence GCCTCCGA, the binding signal is -0.116 E-score.
Regarding ACCTAGGA, the binding signal turned out to be 0.0208 E-score.
Regarding ATCACGCC, the binding signal is 0.26 E-score.
The result for AGACCGTG reads -0.243 E-score.
For GTAGGAGA, the binding signal amounted to 0.00658 E-score.
As for CTGCGGGC, the figure is -0.131 E-score; as for AGAAAATA, 0.0317 E-score; as for GGAGCTCA, 0.08 E-score.
With AACGTGAC, the binding signal is -0.316 E-score.
As to CTGTCGAC, the binding signal is -0.148 E-score.
Regarding TGAATCCA, the binding signal was -0.0503 E-score.
The result for CCGGTAGC reads -0.0821 E-score; that for GTAATTTA, -0.181 E-score; that for AATACTCT, 0.257 E-score.
As to CTCTGAAG, the binding signal is -0.21 E-score.
Regarding AGTTATAC, the binding signal stood at 0.129 E-score.
Take AGCATCTC: the binding signal was found to be 0.0255 E-score.
As for ATAAGAGA, the figure is 0.00476 E-score.
As for AAACCGCC, the figure is -0.0558 E-score.
The result for ACAGGTGA reads 0.082 E-score; that for GCGTCCAA, -0.193 E-score; that for GAGGGATC, 0.397 E-score.
For AAAAGAAC, the binding signal is -0.167 E-score.
For the sequence CTGTCCCC, the binding signal was -0.115 E-score.
As for GTCGTGCA, the figure is -0.078 E-score.
As for CGTATGTC, the figure is 0.0105 E-score; as for CAGCAGAG, -0.0676 E-score; as for CCTTGTAG, 0.0203 E-score.
As for ACTGGCAA, the figure is -0.195 E-score; as for GGCTACAA, -0.0318 E-score; as for ACCTCAAG, -0.13 E-score.
Take AGCCTAGA: the binding signal is -0.131 E-score.
With ATTCCGCC, the binding signal was -0.108 E-score.
Regarding GTCAATGA, the binding signal worked out at 0.026 E-score.
As to GCATACAC, the binding signal was determined as 0.155 E-score.
The result for ACAGTGCT reads -0.0238 E-score; that for AATCGTGA, -0.0818 E-score; that for TATACCCA, 0.401 E-score.
As for TAACTGTA, the figure is -0.0825 E-score; as for CAGTTAAC, -0.113 E-score; as for AGAACGCT, -0.162 E-score.
GTCATCAA: the binding signal was -0.0944 E-score.
As for CACACGGG, the figure is 0.148 E-score.
For the sequence GCGGCCAC, the binding signal is -0.244 E-score.
Turning to CGTTAAAC, the binding signal is -0.175 E-score.
As for CCCACGAG, the figure is 0.0722 E-score.
Consider ATCGTACA, for which the binding signal worked out at 0.142 E-score.
As for ATGCAAAT, the figure is -0.069 E-score; as for GGTCTATA, 0.063 E-score; as for ACTAAACC, 0.114 E-score.
As for CTCTCTTC, the figure is -0.0476 E-score.
The result for ACCGAAAC reads 0.0577 E-score; that for CCCCTTAG, -0.0404 E-score; that for AGCGCTGG, -0.264 E-score.
Take GAGCCCAC: the binding signal came to 0.135 E-score.
For the sequence TCGCTACA, the binding signal is -0.254 E-score.
As for TACTGCTA, the figure is 0.189 E-score; as for CATGATAG, 0.274 E-score.
As for ACCAGCCA, the binding signal was -0.0605 E-score.
As for CTACACAA, the figure is -0.197 E-score.
As to AAGGCCGG, the binding signal was -0.104 E-score.
As for CTACAACA, the figure is -0.0886 E-score.
As for GAGCGGGC, the figure is -0.169 E-score; as for AGTCCAAG, -0.133 E-score; as for ATCTGATC, 0.419 E-score.
With TGAGGGAA, the binding signal was -0.193 E-score.
The result for CTTTCGTA reads -0.229 E-score; that for AGGAAAAC, -0.0959 E-score.
In the case of GCCCGCGA, the binding signal was -0.0488 E-score.
For the sequence ATAATGTG, the binding signal was -0.0933 E-score.
As for AAGAGCGC, the figure is -0.191 E-score; as for AAGCGGGT, -0.00587 E-score; as for AAGGGATC, 0.377 E-score.
The result for GAGTATCC reads 0.42 E-score; that for GTGTACAA, 0.0474 E-score.
As for GGTGCCTA, the figure is -0.19 E-score; as for CGCTTCAA, -0.182 E-score.
As for GACCAACC, the binding signal was -0.0541 E-score.
Regarding CACATGCG, the binding signal was 0.0348 E-score.
With CAGGCGAC, the binding signal was -0.0942 E-score.
As to TAGATGAA, the binding signal came out at 0.00359 E-score.
Regarding CGATACAC, the binding signal came out at 0.418 E-score.
For the sequence ACATAGTC, the binding signal is -0.206 E-score.
As for TCATAGAA, the figure is -0.0333 E-score.
As to AATGCATA, the binding signal was 0.0553 E-score.
The result for TGCCACCA reads -0.0962 E-score; that for ATCTTGCG, 0.0553 E-score; that for GCCGACGC, -0.0249 E-score.
As for ACAGGTTA, the figure is -0.16 E-score; as for CTCCTAGC, -0.0797 E-score; as for ATTTTAAG, -0.135 E-score.
AACATGTC: the binding signal is -0.102 E-score.
Consider ATATCAAG, for which the binding signal came to 0.423 E-score.
Turning to GCGAACAC, the binding signal was 0.0862 E-score.
As for ACAAGTAA, the figure is -0.2 E-score; as for TCAAGACA, -0.172 E-score; as for CACGGGGG, 0.105 E-score.
As to ATCGCCGC, the binding signal was 0.0347 E-score.
In the case of GACCATAC, the binding signal was determined as 0.0313 E-score.
On to GAAATGCC, for which the binding signal is -0.155 E-score.
As for ACGAATGC, the figure is -0.16 E-score.
The result for ATCACTTC reads 0.3 E-score.
The result for TGCCGCAA reads 0.0355 E-score; that for ACAACTGA, -0.0481 E-score; that for AGTTACGC, -0.293 E-score.
For the sequence AAGAACGT, the binding signal was -0.191 E-score.
Turning to CAACAAAA, the binding signal was -0.0775 E-score.
As for AGGCAAAC, the figure is -0.167 E-score; as for AAGCCTCC, -0.289 E-score.
As to GTGAAGTA, the binding signal is -0.0788 E-score.
The result for CAGCACTG reads -0.214 E-score; that for GCGCATGA, -0.0245 E-score.
Take AGCTTTCA: the binding signal is -0.143 E-score.
The result for ACTCATCC reads 0.0911 E-score.
As for AGGACTGC, the figure is -0.301 E-score.
As for CGGTACTA, the figure is -0.03 E-score.
As for CACTATGA, the binding signal is -0.0678 E-score.
In the case of GGACGACA, the binding signal was -0.0703 E-score.
As to TGAGACCA, the binding signal is 0.169 E-score.
The result for ACCACCGC reads -0.0428 E-score; that for AAACAATA, 0.0376 E-score; that for GTCTCGGA, 0.154 E-score.
ATAAACGG: the binding signal was 0.0776 E-score.
Consider AACTCCCC, for which the binding signal was -0.0534 E-score.
The result for CTGTAATA reads 0.0701 E-score; that for CATTAAGG, 0.00831 E-score.
As for ATCCATGG, the figure is 0.167 E-score; as for TATTCACA, 0.166 E-score; as for GCAAACGA, 0.0108 E-score.
The result for CTTTAATC reads 0.0475 E-score; that for CGCGCTGA, 0.0317 E-score; that for AATAACAT, 0.00793 E-score.
With AATATCGG, the binding signal turned out to be 0.312 E-score.
The result for CCTGGAAG reads -0.116 E-score.
Take GGAGTATA: the binding signal came out at 0.319 E-score.
On to AGGCAAAG, for which the binding signal is -0.229 E-score.
Take GTGGAGGA: the binding signal stood at 0.119 E-score.
As for GCGTACTA, the figure is -0.116 E-score.
Regarding CGCCACTA, the binding signal was -0.0453 E-score.
For the sequence ATGGTCCA, the binding signal is -0.106 E-score.
The result for CAACTATA reads -0.00948 E-score; that for CCCTTTTA, -0.125 E-score; that for CGATTCCA, -0.00511 E-score.
Consider CTCGTCCC, for which the binding signal is -0.171 E-score.
Regarding ACTTGCGG, the binding signal was -0.134 E-score.
Regarding ACGACAGA, the binding signal was 0.00908 E-score.
The result for AATGCGCA reads 0.0354 E-score.
The result for GACGTGGA reads -0.122 E-score.
On to AAATTAGC, for which the binding signal was -0.157 E-score.
Consider ATGATCTC, for which the binding signal came to 0.327 E-score.
As for TGTCTAAA, the figure is 0.107 E-score.
The result for TATGGCAA reads -0.143 E-score.
As for CAAAGCGC, the figure is -0.192 E-score; as for AAGGGACT, -0.234 E-score; as for ACTCTAGA, 0.203 E-score.
Turning to CCTCCCCG, the binding signal was 0.0183 E-score.
Regarding ATTCTATG, the binding signal was -0.0456 E-score.
Regarding AGGACTAA, the binding signal is -0.0521 E-score.
The result for GATATGGC reads 0.418 E-score; that for CGCTACCC, 0.0566 E-score; that for ACCTCATC, 0.0359 E-score.
As for GACGCGAA, the figure is -0.0761 E-score; as for AGAGCAAT, 0.0285 E-score; as for AATCTGAG, 0.112 E-score.
For the sequence CGTTACAA, the binding signal was -0.144 E-score.
As for ACGTAGGC, the figure is -0.147 E-score; as for GAGGGGTA, 0.257 E-score.
